# Measurements published in the BET-seq Pho4 binding data (Le et al. 2018).
# This is one part of the list. The energies were worked out here from pooled read counts, against the library average; single values are noisy.
# Target: T1, Pho4 (S. cerevisiae) (UniProt P07270)
# T1 sequence: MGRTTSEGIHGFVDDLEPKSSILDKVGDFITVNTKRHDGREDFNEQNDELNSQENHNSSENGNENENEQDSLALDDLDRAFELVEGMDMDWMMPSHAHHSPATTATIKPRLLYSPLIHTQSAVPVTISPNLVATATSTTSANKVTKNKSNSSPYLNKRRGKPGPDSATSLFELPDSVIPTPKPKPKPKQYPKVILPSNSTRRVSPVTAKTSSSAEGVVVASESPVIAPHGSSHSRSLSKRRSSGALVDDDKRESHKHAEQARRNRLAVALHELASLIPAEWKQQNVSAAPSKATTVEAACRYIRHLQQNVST
# Test: relative binding free energy (BET-seq); higher = weaker binding
# Conditions: reference: library average
row,Sequence,relative binding free energy
1,TTTGGCACGTGCTTTC,-0.21 kcal/mol
2,TGGTGCACGTGATAGC,-0.08 kcal/mol
3,GGCATCACGTGGTATG,0.12 kcal/mol
4,GGGTGCACGTGCTTGT,0 kcal/mol
5,TTCGGCACGTGTCAGG,-0.14 kcal/mol
6,TTAGTCACGTGCAAGT,0.23 kcal/mol
7,AGCGTCACGTGAAGTT,0.29 kcal/mol
8,AGTTTCACGTGTCGTA,0.41 kcal/mol
9,ATGTGCACGTGCAGTA,-0.05 kcal/mol
10,GGGCGCACGTGGTTTT,-0.02 kcal/mol
11,CATTTCACGTGAGTTA,0.35 kcal/mol
12,AGGGACACGTGAGATT,0.25 kcal/mol
13,TTTCGCACGTGGTGTT,-0.18 kcal/mol
14,GTTGTCACGTGGAGCA,0.16 kcal/mol
15,TGATTCACGTGCGTGA,0.23 kcal/mol
16,AGATGCACGTGGATGT,-0.02 kcal/mol
17,GGAGGCACGTGGCAGC,-0.1 kcal/mol
18,ACATTCACGTGAGTGG,0.24 kcal/mol
19,AGCAGCACGTGATGGT,0.11 kcal/mol
20,TTGTTCACGTGCTGAC,0.44 kcal/mol
21,GGTCACACGTGCGGGC,0.29 kcal/mol
22,TGTTTCACGTGCTTCA,0.26 kcal/mol
23,GAGGGCACGTGACGTA,0.19 kcal/mol
24,GGGATCACGTGATGTT,0.4 kcal/mol
25,CATATCACGTGGTAGG,0.07 kcal/mol

row,Sequence,relative binding free energy
1,GGTTCCACGTGCGCGT,0.09 kcal/mol
2,TAGTACACGTGTGAAG,0.01 kcal/mol
3,GGAGTCACGTGTAGCG,0.05 kcal/mol
4,TAATGCACGTGAATTA,0.31 kcal/mol
5,GTCTTCACGTGTTGTC,0.36 kcal/mol
6,ATATGCACGTGATAGG,-0.03 kcal/mol
7,AATATCACGTGTCGTT,0.07 kcal/mol
8,CGGGGCACGTGCGTTA,-0.22 kcal/mol
9,TGGGTCACGTGAGATC,0.28 kcal/mol
10,ATCTGCACGTGGGTCG,-0.12 kcal/mol
11,TTGTACACGTGAAGCG,0.24 kcal/mol
12,GTGTGCACGTGGATCA,0.11 kcal/mol
13,TGTTACACGTGTAGCG,0.05 kcal/mol
14,TTGAGCACGTGGTATA,-0.13 kcal/mol
15,GTTCTCACGTGAGGGT,0.38 kcal/mol
16,GGTGACACGTGGTGAA,-0.04 kcal/mol
17,TTACTCACGTGGATGG,0.18 kcal/mol
18,GCGTACACGTGGGGAG,0 kcal/mol
19,TGTACCACGTGTGATT,0.16 kcal/mol
20,CGTCTCACGTGGGGGA,0 kcal/mol
21,ACGAGCACGTGTGTGT,-0.17 kcal/mol
22,TTTGTCACGTGTCGGG,0.16 kcal/mol
23,CAGGGCACGTGCTGTG,-0.23 kcal/mol
24,GAGTCCACGTGGTGTG,0.05 kcal/mol
25,GACTGCACGTGGGAGT,-0.01 kcal/mol

row,Sequence,relative binding free energy
1,GTCGGCACGTGGGGGG,-0.16 kcal/mol
2,GAGCTCACGTGTATTG,0.35 kcal/mol
3,GCTCGCACGTGGTGTT,-0.16 kcal/mol
4,TGGGCCACGTGTTTTG,0.05 kcal/mol
5,TAAGTCACGTGGTATA,-0.07 kcal/mol
6,ATATACACGTGTTAAT,-0.05 kcal/mol
7,AAAATCACGTGTGGTT,0.18 kcal/mol
8,TGGGTCACGTGGTCGG,0.04 kcal/mol
9,CTGGACACGTGGGGAT,-0.02 kcal/mol
10,TGTAACACGTGTATCT,-0.05 kcal/mol
11,AGGTCCACGTGTGGTT,0.09 kcal/mol
12,TGTGTCACGTGTCGCG,-0.02 kcal/mol
13,AGCAGCACGTGTGGAT,0.1 kcal/mol
14,TAATTCACGTGGTTCT,0.16 kcal/mol
15,TTGTGCACGTGATATT,0.05 kcal/mol
16,CGTTGCACGTGAGGGT,0.2 kcal/mol
17,TGGGGCACGTGGACCG,-0.13 kcal/mol
18,GGTAACACGTGTTATT,0.06 kcal/mol
19,GGAATCACGTGGCGGG,0.12 kcal/mol
20,TTCTTCACGTGTACGT,0.27 kcal/mol
21,GGTCGCACGTGTATTA,0.22 kcal/mol
22,CGTTTCACGTGGTAGG,0.32 kcal/mol
23,GGGATCACGTGGTCGA,0.12 kcal/mol
